Test results: PubChem BioAssay AID743255 (National Center for Advancing Translational Sciences (NCATS), 2014)
Screen size: about 390,000 compounds; about 910 (0.23%) were called active. Inconclusive results (about 5%) are left out. Calls come from the whole dose curve; as a rule, active = well fitted inhibition curve with a large enough effect; inconclusive = small, poorly fitted or top-dose-only effect; inactive = no such curve, though single readings can be large or run the other way. The entries are a selection whose mix differs from that of the whole data set.

Molecular target: Ubiquitin carboxyl-terminal hydrolase 1 (Homo sapiens) (UniProt O94782)
Test: Inhibitors of USP1/UAF1: Primary Screen; note: nearly all actives have a fitted effect of over 60% in size
Details: recombinant USP1/UAF1, Ub-Rhodamine cleavage fluorescence; activity change, negative = inhibition: at 57.1 µM (top of the series)
Text: Deubiquitinating enzymes (DUBs) are a class of enzymes that can cleave isopeptide bond formed between the C-terminal carboxylate of ubiquitin and a lysine side-chain amino group on the target protein. Among them, ubiquitin specific proteases (USPs) constitute the largest DUB family. Human USPs are emerging as promising targets for pharmacological intervention because of their connection to a number of human diseases, including prostate, colon and breast cancer (1, 2), pediatric acute lymphoblastic leukemia (3), and familial cylindromatosis (4). The advantage of inhibiting USPs lies in the potential specificity of therapeutic intervention that can lead to better efficacy and reduce nonspecific side effects. In a collaboration between the University of Delaware and the NIH Chemical Genomics Center, a high-throughput screen assay was developed to screen for USP1/UAF1 inhibitors. This miniaturized assay has a fluorescent read-out and is used to screen the NIH Molecular Libraries Small Molecule Repository (MLSMR) in order to identify a small molecule that inhibits USP1. NIH Chemical Genomics Center [NCGC] NIH Molecular Libraries Probe Centers Network [MLPCN] MLPCN Grant: DA030552 Assay Submitter (PI): Zhihao Zhuang, University of Delaware 1. Priolo, C., et al. (2006) The isopeptidase USP2a protects human prostate cancer from apoptosis. Cancer Res 66, 8625-8632 2. Popov, N., et al. (2007) The ubiquitin-specific protease USP28 is required for MYC stability. Nat Cell Biol 9, 765-774 3. De Pitta, C., et al. (2005) A leukemia-enriched cDNA microarray platform identifies new transcripts with relevance to the biology of pediatric acute lymphoblastic leukemia. Haematologica 90, 890-898 4. Kovalenko, A., et al. (2003) The tumour suppressor CYLD negatively regulates NF-kappaB signalling by deubiquitination. Nature 424, 801-805
3 microliters of reagents (buffer in columns 3 and 4 as negative control and 1nM USP1/UAF1 complex in columns 1, 2, and 5-48) are dispensed into Greiner black solid bottom 1536-well assay plates. Compounds are then transferred via Kalypsys pin tool equipped with 1536-pin array (10nl slotted pins, V&P Scientific, San Diego, CA). Following an incubation step of 15 min at room temperature, 1ul of Ub-Rho substrate (150nM final concentration) is added to initiate the reaction. The plates are immediately centrifuged at 1000 rpm for 15 seconds, and subsequently transferred to a ViewLux high-throughput CCD imager (PerkinElmer) wherein kinetic measurements of fluorescence are acquired using 480 nm excitation/540 nm emission filter set (6 reads every 60 seconds, see Table 1). All reagents are diluted in an assay buffer consisting of 50mM HEPES (pH 7.8), 0.5mM EDTA, 0.1 mg/ml BSA, 1mM TCEP, and 0.01% Tween-20.
% is set by controls: 0 for no effect and ±100 for the full control effect; potency is the fitted concentration of half-maximal effect.

Chain of UniProt O94782 (O94782 whole entry, looked up): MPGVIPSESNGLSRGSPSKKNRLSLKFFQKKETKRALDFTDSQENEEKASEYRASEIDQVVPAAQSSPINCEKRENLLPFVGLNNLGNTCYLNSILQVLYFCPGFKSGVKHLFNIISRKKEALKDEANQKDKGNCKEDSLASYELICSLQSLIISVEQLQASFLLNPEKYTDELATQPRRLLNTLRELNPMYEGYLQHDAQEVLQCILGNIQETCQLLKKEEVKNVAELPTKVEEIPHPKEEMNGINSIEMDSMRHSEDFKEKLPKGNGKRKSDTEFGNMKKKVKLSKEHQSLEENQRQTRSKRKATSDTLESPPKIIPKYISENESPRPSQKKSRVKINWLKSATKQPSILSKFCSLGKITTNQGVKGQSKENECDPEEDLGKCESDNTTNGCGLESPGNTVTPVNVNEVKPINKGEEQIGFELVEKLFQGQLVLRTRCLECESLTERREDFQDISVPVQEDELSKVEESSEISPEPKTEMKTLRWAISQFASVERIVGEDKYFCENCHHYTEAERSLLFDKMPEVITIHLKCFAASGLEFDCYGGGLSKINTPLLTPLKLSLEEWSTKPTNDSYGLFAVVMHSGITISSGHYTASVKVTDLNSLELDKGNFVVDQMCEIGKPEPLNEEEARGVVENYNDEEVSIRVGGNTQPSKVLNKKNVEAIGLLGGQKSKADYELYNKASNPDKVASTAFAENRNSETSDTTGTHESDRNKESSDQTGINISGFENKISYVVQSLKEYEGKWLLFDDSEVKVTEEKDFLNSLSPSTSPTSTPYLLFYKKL

Question: With `Cc1ccc(NC(=S)N2CCC(c3nc4ccccc4s3)CC2)cc1C` as the molecule, how does the “activity change, negative = inhibition” value read?
Answer: inactive: 34.1%

Question: With `CCN1C(=O)[C@H]2[C@@H](c3ccc(-c4ccc(C(C)=O)cc4)c(OC)c3)N3CCCC[C@@]3(C(=O)OC)[C@H]2C1=O` as the molecule, how does the “activity change, negative = inhibition” value read?
Answer: inactive: -25.1%

Question: For `CCN(CC)c1ccc(/C=C/c2cc(-c3ccccc3)c3ccccc3n2)cc1`, which “activity change, negative = inhibition” value is on record?
Answer: inactive: 264%

Question: For `C=CCC[C@H](Cc1ccc(F)cc1)C(=O)OC[C@H](C)NC(=O)[C@H](CC=C)CC(=O)N(CCO)Cc1ccccc1`, which “activity change, negative = inhibition” value is on record?
Answer: inactive: -7.46%

Question: How did the “activity change, negative = inhibition” value turn out when `COc1ccc(S(=O)(=O)N(C)C[C@@H]2OCc3cnnn3CCCC(=O)N([C@H](C)CO)C[C@@H]2C)cc1` was run?
Answer: inactive: -23.2%

Question: With `CC(C)(C)OC(=O)C[C@H]1C/C=C\C[C@H](CC(=O)N(CCO)Cc2ccccc2)C(=O)N[C@H](C(C)(C)C)COC1=O` as the molecule, how does the “activity change, negative = inhibition” value read?
Answer: inactive: -14.1%

Question: Which “activity change, negative = inhibition” value does the source give for `COc1ccc2cc(CNc3ccccc3)c(=O)n(CC(=O)Nc3ccc(C)cc3C)c2c1` here?
Answer: inactive: 18.7%

Question: For `CCOC(=O)C1=C(c2ccccc2)N=c2s/c(=C\c3cc(OC)c(OC)c(OC)c3)c(=O)n2C1c1cccs1` (stereo unspecified), which Potency is on record?
Answer: active: 22.4 µM

Question: With `C[C@H](CO)N1C[C@H](C)[C@@H](CN(C)C(=O)Nc2ccc(C(F)(F)F)cc2)Oc2c(NC(=O)NC3CCCCC3)cccc2C1=O` as the molecule, how does the “activity change, negative = inhibition” value read?
Answer: inactive: -4.89%

Question: How did the “activity change, negative = inhibition” value turn out when `O=C(CN(c1ccc(F)cc1)S(=O)(=O)c1ccc2c(c1)OCCO2)NCc1ccccc1` was run?
Answer: inactive: 41.7%

Question: With `O=C(CSc1nc2c([nH]c3ccccc32)c(=O)n1-c1cccc(Cl)c1)N1CCOCC1` as the molecule, how does the “activity change, negative = inhibition” value read?
Answer: inactive: -22.7%

Question: Which Potency does the source give for `COC1=C(Br)C(=O)c2nc(C)ccc2C1=O` here?
Answer: active: 25.1 µM

Question: `C[C@H]1CN([C@@H](C)CO)C(=O)CCCn2nncc2CO[C@@H]1CN(C)C(=O)c1ccc(N2CCN(C)CC2)cc1` was tested. Which “activity change, negative = inhibition” value did it give?
Answer: inactive: -16.4%

Question: Which “activity change, negative = inhibition” value does the source give for `COc1cc(NC(=O)c2cncc(-c3ccc(C#N)cc3)c2)cc(C(=O)Nc2cccc(C(F)(F)F)c2)c1` here?
Answer: inactive: -24.3%

Question: `CCc1c(C)nc(SCC(=O)c2cccs2)c(C#N)c1C` was tested. Which “activity change, negative = inhibition” value did it give?
Answer: inactive: 189%

Question: For `COc1ccc(-c2cc(C(=O)Nc3ccc4c(c3)OCO4)no2)cc1OC`, which “activity change, negative = inhibition” value is on record?
Answer: inactive: -14.4%

Question: Which “activity change, negative = inhibition” value does the source give for `COC(C[C@@H]1O[C@@H]1[C@H](O)[C@H](C)OCc1ccccc1)OC` here?
Answer: inactive: -16.2%

Question: How did the “activity change, negative = inhibition” value turn out when `C=CCCC(=O)Nc1nc(C)c(-c2csc(Nc3ccc(Cl)cc3)n2)s1` was run?
Answer: inactive: 19.7%

Question: With `C[C@@H]1CN([C@H](C)CO)C(=O)CCCn2nncc2CO[C@@H]1CN(C)C(=O)Nc1ccc2c(c1)OCO2` as the molecule, how does the “activity change, negative = inhibition” value read?
Answer: inactive: -21%

Question: For `COC(=O)N(C)C[C@@H]1OCc2cnnn2CCCC(=O)N([C@H](C)CO)C[C@@H]1C`, which “activity change, negative = inhibition” value is on record?
Answer: inactive: -24.2%

Question: Which “activity change, negative = inhibition” value does the source give for `C=CC[C@@H](CC(=O)N[C@H](CO)Cc1ccccc1)C(=O)N[C@@H](COC(=O)[C@@H](CC=C)Cc1ccc(F)cc1)Cc1c[nH]c2ccccc12` here?
Answer: inactive: -10%

Question: Which Potency does the source give for `COc1ccc(Cn2c(O)c(/C=N/NC(=O)c3cccnc3)c3ccccc3c2=O)cc1` here?
Answer: active: 31.6 µM

Question: With `C=CC[C@H](CC(=O)N[C@H](CO)Cc1ccccc1)C(=O)N[C@@H](COC(=O)[C@@H](CC=C)Cc1ccc(F)cc1)Cc1c[nH]c2ccccc12` as the molecule, how does the “activity change, negative = inhibition” value read?
Answer: inactive: 7.67%

Question: With `COc1ccc(CNC(=O)C2CCC(CNS(=O)(=O)c3cccs3)CC2)cc1` (stereo unspecified) as the molecule, how does the “activity change, negative = inhibition” value read?
Answer: inactive: -14.2%

Question: How did the “activity change, negative = inhibition” value turn out when `Cc1ccc(C)c(C(=O)COC(=O)CCCC(=O)Nc2cc(C(F)(F)F)ccc2Cl)c1` was run?
Answer: inactive: -23.4%

Question: With `C[C@@H]1CN([C@@H](C)CO)S(=O)(=O)c2ccc(Br)cc2O[C@H]1CN(C)C(=O)c1cccc(F)c1` as the molecule, how does the “activity change, negative = inhibition” value read?
Answer: inactive: -13.2%

Question: `CCOc1cccc2cc(-c3nc4sc(C(=O)Nc5ccc(C)cc5)c(C)c4c(=O)[nH]3)c(=O)oc12` was tested. Which “activity change, negative = inhibition” value did it give?
Answer: inactive: 53.6%

Question: `C[C@H](CO)N1C[C@H](C)[C@H](CN(C)C(=O)c2ccccc2)OCc2cnnn2CCCC1=O` was tested. Which “activity change, negative = inhibition” value did it give?
Answer: inactive: -31%

Question: For `C[C@H]1CN([C@@H](C)CO)C(=O)CCCn2nncc2CO[C@@H]1CN(C)S(=O)(=O)c1ccc(Oc2ccccc2)nc1`, which “activity change, negative = inhibition” value is on record?
Answer: inactive: -22.8%

Question: Which “activity change, negative = inhibition” value does the source give for `O=C(NC1CC(=O)N(c2ccccc2)C1)c1ccc(S(=O)(=O)N2CCOCC2)cc1` (stereo unspecified) here?
Answer: inactive: 3.36%

Question: For `C[C@@H]1CN([C@@H](C)CO)C(=O)CCCn2nncc2CO[C@@H]1CN(C)C(=O)c1ccc2ccn(C)c2c1`, which “activity change, negative = inhibition” value is on record?
Answer: inactive: -24.3%

Question: Which “activity change, negative = inhibition” value does the source give for `CCOC1=C/C(=C/c2c(N)n3nc(CC(=O)N4CCCCC4)sc3nc2=O)C=CC1=O` here?
Answer: inactive: 37%

Question: Which Potency does the source give for `N#CC1=C2SCN(Cc3ccco3)CN2C(=O)CC1c1c(F)cccc1Cl` (stereo unspecified) here?
Answer: active: 12.6 µM

Question: With `C[C@H]1COC(=O)[C@@H](Cc2ccc(F)cc2)C/C=C\C[C@H](CC(=O)NCCO)C(=O)N1` as the molecule, how does the “activity change, negative = inhibition” value read?
Answer: inactive: -6.21%

Question: Which “activity change, negative = inhibition” value does the source give for `C[C@@H]1COC(=O)[C@@H](NC(=O)OCC2c3ccccc3-c3ccccc32)C/C=C\C[C@@H](CC(=O)N(CCO)Cc2ccccc2)C(=O)N1` here?
Answer: inactive: -20.3%

Question: With `COC(=O)c1nnn(CC(=O)NC(=O)Nc2ccccc2F)c1C(=O)OC` as the molecule, how does the “activity change, negative = inhibition” value read?
Answer: inactive: -3.83%

Question: `COc1ccccc1C(=O)Nc1cc(-c2ccc(C)cc2)no1` was tested. Which “activity change, negative = inhibition” value did it give?
Answer: inactive: -6.48%

Question: Which Potency does the source give for `O=C(O)c1ccc(-c2ccc(/C=N/Nc3ccc([N+](=O)[O-])cc3)o2)cc1` here?
Answer: active: 12.6 µM

Question: How did the “activity change, negative = inhibition” value turn out when `C[C@H](CO)N1C[C@H](C)[C@@H](CN(C)CC2CCCCC2)Oc2c(NC(=O)C3CC3)cccc2C1=O` was run?
Answer: inactive: -19.2%

Question: How did the “activity change, negative = inhibition” value turn out when `C[C@H]1CN=C2N(CCNC(=O)CCC3CCCCC3)[C@H](Cc3ccc(O)cc3)CN21` was run?
Answer: inactive: 3.83%

Question: Which “activity change, negative = inhibition” value does the source give for `COC(=O)N(C)C[C@H]1OCc2cnnn2CCCC(=O)N([C@@H](C)CO)C[C@@H]1C` here?
Answer: inactive: -13.5%
